# Laboratory results: PubChem BioAssay AID1745853 (National Center for Advancing Translational Sciences (NCATS), 2022)
# The list shows a part of the results. Shown are side measurements of this screen, not its main read-out; they come without a call. Square brackets hold non-standard residues; d marks the D form. Peptide text beside a SMILES is read from it. dPhe(4-Cl) = N[C@H](Cc1ccc(Cl)cc1)C(=O)O; d2Nal = N[C@H](Cc1ccc2ccccc2c1)C(=O)O; dCit = NC(=O)NCCC[C@@H](N)C(=O)O; d3Pal = N[C@H](Cc1cccnc1)C(=O)O
# Tests used:
# Assay in all cases: Primary Screen for Target Class Profiling of Small Molecule Inhibitors of Methyltransferases
# [1] = target: Glycine N-methyltransferase (Homo sapiens) (UniProt Q14749); details: purified enzyme, MTase-Glo SAH luminescence; measured here: GNMT inhibition; at 40 µM; stronger effect = lower value
# Outline: (§1)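 Each enzyme was assayed with SAM and its substrate. SAH formation detected by MTase-Glo luminescence; single-point 40 uM screen[…].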
# [2] = target: Guanidinoacetate N-methyltransferase (Homo sapiens) (UniProt Q14353); details: purified enzyme, MTase-Glo SAH luminescence; measured here: GAMT inhibition; at 40 µM; stronger effect = lower value
# Outline: as §1
# [3] = target: Histamine N-methyltransferase (Homo sapiens) (UniProt P50135); details: purified enzyme, MTase-Glo SAH luminescence; measured here: HNMT inhibition; at 40 µM; stronger effect = lower value
# Outline: as §1
# [4] = target: Nicotinamide N-methyltransferase (Homo sapiens) (UniProt P40261); details: purified enzyme, MTase-Glo SAH luminescence; measured here: NNMT inhibition; at 40 µM; stronger effect = lower value
# Outline: as §1
# [5] = target: Phenylethanolamine N-methyltransferase (Homo sapiens) (UniProt P11086); details: purified enzyme, MTase-Glo SAH luminescence; measured here: PNMT inhibition; at 40 µM; stronger effect = lower value
# Outline: as §1
# % is scaled to controls: 0 for no effect and ±100 for the full control effect.
Structure (SMILES),"activity change, negative = inhibition [1]","activity change, negative = inhibition [2]","activity change, negative = inhibition [3]","activity change, negative = inhibition [4]","activity change, negative = inhibition [5]"
COc1cc2ncnc(Nc3cc(Br)c(O)c(Br)c3)c2cc1OC,-13.1%,-2.44%,-23.2%,-18.2%,-4.21%
COc1ccc(-c2noc(C(=O)NC(C)C)c2[C@H](C)O)cc1,-2.94%,-1.76%,-0.003%,-4.82%,-5.18%
CCCn1c(=O)c2ccccc2n2c(=O)n(CC(=O)Nc3ccc(OC)cc3)nc12,-2.2%,0.542%,3.96%,-1.05%,1.47%
CCOC(=O)c1cc2n(n1)CC(C)(C(=O)NCCC(C)C)N(c1cccc(Cl)c1)C2=O (stereo not given),5.7%,4.04%,5.43%,10.1%,2.13%
CC(=O)NCc1cccc(OC[C@@H](O)CNCCc2ccc(NS(=O)(=O)c3ccccc3)cc2)c1,-2.8%,0.331%,-2.86%,-16.1%,1.57%
OCC1CN(c2ncccn2)CC12CCN(Cc1ccsc1)CC2 (stereo not given),-2.88%,-4.96%,-9.23%,-7.43%,0.321%
Cc1ccc(Cn2c(=O)c3ccccc3n3c(SCc4ccccc4)nnc23)cc1,0.322%,6.78%,1.53%,-2.81%,-1.63%
COc1ccc(C(=O)N2CC(=O)N(c3ccc(C)cc3)CC2C)c(OC)n1 (stereo not given),-0.996%,-0.856%,-0.488%,2.66%,0.306%
O=C1CN(Cc2c(F)cccc2Cl)S(=O)(=O)c2ccccc2N1Cc1ccccc1F,15.2%,0%,12.5%,6.94%,8.67%
COc1ccc(C2OCC3C(c4cc(OC)c5c(c4)OCO5)OCC23)cc1OC (stereo not given),0.289%,6.53%,11.4%,-7.12%,2.15%
CCS(=O)(=O)N1CCC([C@@H](C)n2c(C)c(C(=O)NCc3c(OC)cc(C)[nH]c3=O)c3ccccc32)CC1,5.94%,5.3%,9.94%,-14.3%,1.64%
Fc1ccc(CNc2ncnc3ccc(F)cc23)cc1,-0.015%,7.11%,7.38%,-15.1%,-2.22%
COc1ccc(NC(=O)CC2CCCCN(C)C2=O)cc1OC (stereo not given),-2.73%,-8.38%,-3.43%,-14.6%,6.41%
CC(CCc1ccccc1)NC(=O)CCn1ccc2cc(S(=O)(=O)N3CCCC3)ccc21 (stereo not given),-1.95%,0%,5.39%,5.66%,3.64%
CC1CCN(C(=O)CN2C(=O)NC3(CCCCC3)C2=O)CC1,2.01%,-4.65%,1.7%,2.82%,1.53%
CCC(C)NC(=O)c1ccc2c(=O)n(C)c3nn(CC(=O)Nc4ccc(C)cc4)c(=O)n3c2c1 (stereo not given),3.35%,2.98%,3.22%,-1.02%,-0.759%
Cc1cc(C)n(CCC(=O)N2CCC(C3CCN(S(C)(=O)=O)CC3)C2)n1 (stereo not given),-4.7%,-7.09%,-2.37%,-8.59%,-6.55%
COc1ccc(Cn2c(=O)c3ccccc3n3c(-c4ccc(OC)cc4O)nnc23)cc1,-16.4%,0%,8.87%,-2.63%,1.35%

Structure (SMILES),"activity change, negative = inhibition [1]","activity change, negative = inhibition [2]","activity change, negative = inhibition [3]","activity change, negative = inhibition [4]","activity change, negative = inhibition [5]"
O=C(c1ccc(Nc2nc3ccccc3n3nnnc23)cc1)N1CCN(c2ccc(F)cc2)CC1,-21.7%,0%,-3.01%,-4.59%,-5.31%
Cc1cccc(NC(=O)Cn2nc3n(CC(C)C)c(=O)c4ccc(C(=O)NC(C)C)cc4n3c2=O)c1,-0.609%,3.18%,2.11%,-5.81%,-2.65%
Cn1c(=O)c2c(ncn2C)n(C)c1=O,-4.73%,6.15%,-0.77%,-1.73%,9.41%
CC(=O)N[C@H](Cc1ccc2ccccc2c1)C(=O)N[C@H](Cc1ccc(Cl)cc1)C(=O)N[C@H](Cc1cccnc1)C(=O)N[C@@H](CO)C(=O)N[C@@H](Cc1ccc(O)cc1)C(=O)N[C@H](CCCNC(N)=O)C(=O)N[C@@H](CC(C)C)C(=O)N[C@@H](CCCN=C(N)N)C(=O)N1CCC[C@H]1C(=O)N[C@H](C)C(N)=O (Ac-[d2Nal][dPhe(4-Cl)][d3Pal]SY[dCit]LRP[dA]-NH2),3.31%,21.4%,6.88%,3.09%,5.4%
COc1cccc(C2c3cccn3-c3sc4c(c3CN2C(=O)Nc2ccccc2OC)CCCC4)c1 (stereo not given),0.552%,0%,7.53%,-3.79%,4.21%
C/C(=C/CO)CC[C@@H]1[C@@](C)(O)CCC2C(C)(C)CCC[C@]21C (stereo not given in full),-3.17%,10.4%,9.12%,-6.74%,3.32%
CCCn1c(=O)c2ccc(C(=O)NCC(C)C)cc2n2c(SCC(=O)Nc3ccc(F)cc3)nnc12,1.89%,0%,1.5%,-3.68%,1.25%
CN1CCN(C(=O)C2CCCCC(=O)N2)CC1 (stereo not given),0.356%,0.511%,0.199%,3.93%,-0.419%
O=C(NCc1ccc(F)cc1)c1nc2sccn2c1Br,-3.42%,-4.52%,-0.868%,-5.66%,-2.23%
COc1ccc(S(=O)(=O)N2CCC(OC3CCN(C)CC3)CC2)cc1,2.07%,0%,7.63%,10.3%,6.58%
O=C(COc1ccccc1)NCC1CCCCC(=O)N1 (stereo not given),-5.75%,-7.26%,-1.62%,-8.79%,-1.11%
C=C(C)[C@@H]1CC[C@]2(C(=O)O)CC[C@]3(C(=O)O)[C@H](CCC4[C@@]5(C)CCC(=O)C(C)(C)C5CC[C@]43C)C12 (stereo not given in full),-5.31%,-7.98%,-0.84%,-17.6%,-16.1%
CC1(C(=O)NC2CCCCCCC2)Cn2c(ccc2-c2ccco2)C(=O)N1Cc1cccnc1 (stereo not given),-4.14%,1.78%,-1.62%,-4.77%,-5.31%
CCOC(=O)c1cc2n(n1)CC(C)(C(=O)NC1CCC(C)CC1)N(Cc1cccc(C)c1)C2=O (stereo not given),3.7%,5.69%,2.04%,-11.3%,2.29%
CCOCCCNC(=O)c1cc2n(n1)CC(C)(C(=O)NCCC(C)C)N(C)C2=O (stereo not given),-1.68%,3.51%,1.14%,-3.4%,0.63%
COc1ccc(CN2Cc3[nH]cnc3C[C@H]2C(=O)N2CCC(Cc3ccccc3)CC2)cc1,-11.1%,-12.5%,-11%,-21.7%,-16.9%
CC(=O)OC[C@]12[C@H](OC(C)=O)[C@H](OC(=O)c3ccccc3)[C@@H]3[C@@H](OC(C)=O)[C@]1(OC3(C)C)[C@H](C)C[C@H](OC(=O)c1ccccc1)[C@@H]2OC(=O)c1ccccc1,0%,-15.3%,11%,-20.7%,-5.35%
COc1ccc(C)c2sc(NC(=O)c3ccncc3)nc12,-6.53%,-3.9%,9.13%,-17.7%,-2.89%
